Data set [1] deals with the molecule itself. Kind of data set: SDS-PAGE without reducing agent; 5 ug protein from the 200 uM stock solution loaded directly onto the gel in the absence of DTE; disulphide-stabilized dimers.
In data set [2] the target is T1, full length (FL) human recombinant TPPP/p25 (Tubulin Polymerization Promoting Protein) (human, UniProt O94811).
T1 construct: Tubulin Polymerization Promoting Protein (TPPP/p25), human, full length; A part of the 200 uM stock is a dimer stabilised by intermolecular disulphide bridges; also called FL TPPP/p25; source: E. coli BL21 (DE3), purified (HIS-Select Cartridge)
T1 sequence (O94811 whole entry): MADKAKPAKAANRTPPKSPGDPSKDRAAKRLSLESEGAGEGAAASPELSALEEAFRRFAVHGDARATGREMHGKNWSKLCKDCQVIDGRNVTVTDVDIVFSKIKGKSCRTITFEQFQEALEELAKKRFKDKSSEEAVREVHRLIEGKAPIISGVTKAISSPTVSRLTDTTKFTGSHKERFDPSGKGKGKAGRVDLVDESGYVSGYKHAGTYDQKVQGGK
Kind of data set: ELISA; sandwich ELISA: 1 uM FL or CORE TPPP/p25 reduced with 100 uM DTE (30 min, room temperature) and captured on the mAb-coated plate; excess DTE removed; the different TPPP/p25 forms added; dimers detected with biotinylated mAb; PBS; no tubulin/MT. As to conditions: both partners purified. In general terms: In an ELISA, binding on a coated surface is turned into a signal by an enzyme label.

B1: double truncated (CORE) TPPP/p25 (TPPP/p25 delta […]/delta […]) (domain or fragment)
chain: not shown
notes: TPPP/p25, human, CORE segment, printed as delta […]/delta […] (CORE […]): residues 1-2 joined to […]; also called terminal-free TPPP/p25; CORE segment […]; source: E. coli BL21 (DE3), purified (HIS-Select Cartridge)
A word on the stoichiometry N: it is a count of units in the complex or per binding partner. Turning to B1, the “stoichiometry N” value in data set [1] was 2. For the same molecule, the binding result in data set [2] is reported as “binds”.

Values taken from publication PMC5225419, “Further evidence for microtubule-independent dimerization of TPPP/p25” (Scientific Reports, 2017).
